The other results are listed elsewhere or left out.
B1: PhoQ; a variant is named by its letters at X, in order, P23837 (parent)
chain: MKKLLRLFFPLSLRVRFLLATAAVVLVLSLAYGMVALIGYSVSFDKTTFRLLRGESNLFYTLAKWENNKLHVELPENIDKQSPTMTLIYDENGQLLWAQRDVPWLMKMIQPDWLKSNGFHEIEADVNDTSLLLSGDHSIQQQLQEVREDDDDAEMTHSVAVNVYPATSRMPKLTIVVVDTIPVELKSSYMVWSWFIYVLSANLLLVIPLLWVAAWWSLRPIEALAKEVRELEEHNRELLNPATTRELTSLVRNLNRLLKSERERYDKYRTTLTDLTHSLKTPLXXLQXXLRSLRSEKMSVSDAEPVMLEQISRISQQIGYYLHRASMRGGTLLSRELHPVAPLLDNLTSALNKVYQRKGVNISLDISPEISFVGEQNDFVEVMGNVLDNACKYCLEFVEISARQTDEHLYIVVEDDGPGIPLSKREVIFDRGQRVDTLRPGQGVGLAVAREITEQYEGKIVAGESMLGGARMEVIFGRQHSAPKDE

Variants of: B1
Test: enrichment ratio after two sorts for PhoP signalling (ratio (wild type AVST 3.29)); higher = more functional
Settings: with PhoP (E. coli)

Row | Variant | enrichment ratio
1 | YDGR | ≤ 0.25
2 | FWHQ | 0.747
3 | TCTH | 3.96
4 | TMWF | ≤ 0.25
5 | DRLV | ≤ 0.25
6 | MTAR | ≤ 0.25
7 | LGFG | 0.491
8 | KAME | ≤ 0.25
9 | IFEN | ≤ 0.25
10 | KHMH | ≤ 0.25
11 | VCID | ≤ 0.25
12 | DNVH | ≤ 0.25
13 | RDVK | ≤ 0.25
14 | YVSY | 0.492
15 | TVCC | 6.39
16 | HRQK | ≤ 0.25
17 | MHSW | ≤ 0.25
18 | QTLL | ≤ 0.25
19 | QQCG | 10.3
20 | QYKC | ≤ 0.25
21 | AIPK | ≤ 0.25
22 | RWAA | ≤ 0.25
23 | HLHM | ≤ 0.25
24 | SHMH | 3
25 | ELRH | ≤ 0.25

Row | Variant | enrichment ratio
26 | RSYR | ≤ 0.25
27 | APIN | ≤ 0.25
28 | KRWT | ≤ 0.25
29 | VAQD | ≤ 0.25
30 | GPMD | ≤ 0.25
31 | NRQL | ≤ 0.25
32 | KLRH | ≤ 0.25
33 | SGWY | ≤ 0.25
34 | VPID | ≤ 0.25
35 | YFSM | ≤ 0.25
36 | LCLE | ≤ 0.25
37 | FFDW | ≤ 0.25
38 | LKTM | ≤ 0.25
39 | FNMT | ≤ 0.25
40 | EKIS | ≤ 0.25
41 | TMMY | 0.451
42 | PKCY | ≤ 0.25
43 | DSSK | ≤ 0.25
44 | GMTL | 15.2
45 | LDMW | ≤ 0.25
46 | MLMF | ≤ 0.25
47 | AEIP | ≤ 0.25
48 | EFMK | ≤ 0.25
49 | KGDI | ≤ 0.25
50 | LSRW | ≤ 0.25

Row | Variant | enrichment ratio
51 | MAYK | ≤ 0.25
52 | GFSV | 1.49
53 | VQMR | ≤ 0.25
54 | FGKY | ≤ 0.25
55 | NIDF | ≤ 0.25
56 | QEES | ≤ 0.25
57 | PYKS | ≤ 0.25
58 | PIVK | ≤ 0.25
59 | HKTA | ≤ 0.25
60 | FLTD | ≤ 0.25
61 | GGHE | ≤ 0.25
62 | KDWI | ≤ 0.25
63 | VTCH | ≤ 0.25
64 | DFSQ | ≤ 0.25
65 | KAKN | ≤ 0.25
66 | YMPT | ≤ 0.25
67 | HFLG | ≤ 0.25
68 | TNIP | ≤ 0.25
69 | QWYP | ≤ 0.25
70 | PLES | ≤ 0.25
71 | WATF | ≤ 0.25
72 | DESI | ≤ 0.25
73 | QTAD | ≤ 0.25
74 | SFVH | ≤ 0.25
75 | HCRS | ≤ 0.25

Row | Variant | enrichment ratio
76 | KYMH | ≤ 0.25
77 | RLYW | ≤ 0.25
78 | IGDT | ≤ 0.25
79 | FSST | ≤ 0.25
80 | HRTF | ≤ 0.25
81 | HYGR | ≤ 0.25
82 | GCNL | ≤ 0.25
83 | YDPA | ≤ 0.25
84 | DMKD | ≤ 0.25
85 | WHNP | ≤ 0.25
86 | KRSN | ≤ 0.25
87 | QRPI | ≤ 0.25
88 | NWNW | ≤ 0.25
89 | LQNW | ≤ 0.25
90 | TNPH | ≤ 0.25
91 | TMVD | ≤ 0.25
92 | FYYE | ≤ 0.25
93 | LAAS | ≤ 0.25
94 | GHTI | ≤ 0.25
95 | DAFW | ≤ 0.25
96 | NPHS | ≤ 0.25
97 | LLIE | ≤ 0.25
98 | VCSS | 0.263

— a collection of fitness landscapes (doi:10.1126/science.1257360)
